Assay results as given in PubChem BioAssay AID1346428 (National Center for Advancing Translational Sciences (NCATS), 2018).
About 1,200 (2.5%) of roughly 48,000 compounds were called active. Another 2% or so got no clear call; they are omitted.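 The calls were made as follows: active = activation of at least 60% and not above a set upper limit (about 1 call in 100 departs from these limits); inconclusive = activation of 40% to 60%, or above that upper limit; inactive = activation under 40%.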 The list shows a part of the results.

Target: Probable G-protein coupled receptor 32 (Homo sapiens) (UniProt O75388)
Assay: qHTS for Agonists of Human Resolvin D1 Receptor DRV1; also: 0% is about no effect
Details: CHO-K1 GPR32 beta-arrestin PathHunter luminescence, 90 min; at 76.9 µM; active compounds read high; zero percent set by DMSO-only wells
How it was run: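 Agonism was scored as beta-arrestin recruitment to ProLink-fused GPR32 in stably transfected CHO-K1 cells, giving a chemiluminescent beta-Gal signal; compounds were incubated 90 min at 37 °C.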

UniProt O75388, sequence (O75388 whole entry, looked up): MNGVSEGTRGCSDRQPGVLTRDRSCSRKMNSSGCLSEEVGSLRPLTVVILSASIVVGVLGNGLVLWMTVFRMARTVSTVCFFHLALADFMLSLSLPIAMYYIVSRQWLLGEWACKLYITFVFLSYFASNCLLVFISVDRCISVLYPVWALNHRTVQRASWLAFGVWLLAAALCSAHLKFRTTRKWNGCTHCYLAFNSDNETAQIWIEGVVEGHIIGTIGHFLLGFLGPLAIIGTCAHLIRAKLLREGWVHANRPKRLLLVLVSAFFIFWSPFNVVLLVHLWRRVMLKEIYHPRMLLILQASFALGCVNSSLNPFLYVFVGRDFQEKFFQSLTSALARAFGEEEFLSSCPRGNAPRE

activation, inactive:
CCOc1ccc(-c2cc(CCCC(=O)NCCc3ccc(OCC)c(OCC)c3)no2)cc1 7.65%
CCN1CCN(C(=O)c2ccc3c(c2)N(Cc2ccccc2F)C(=O)c2ccccc2S3(=O)=O)CC1 -28.1%
Cc1ccccc1NC(=O)c1ccc(F)c(S(=O)(=O)NC2CCCC2)c1 -19.3%
COc1cc(NS(=O)(=O)c2ccc(NC(=O)c3ccc(C(C)=O)cc3)cc2)nc(OC)n1 -13.3%
COc1ccc(NC(=O)c2sc3nc4c(cc3c2N)CCCCCC4)cc1Cl 26.5%
CCOC(=O)c1cccc(NC(=O)N2CC(CC)Oc3ccccc32)c1 (configuration not stated) -34%
COc1cccc(N(C)C(=S)Oc2ccc3c(c2)CCCC3)n1 15.3%
Cc1ccc(N2CCN(C(=O)c3c(C)oc4nc(C)nc(N5CCCC5)c34)CC2)c(C)c1 1.58%
Cc1cccc(-n2ncc(C(=O)NCc3ccco3)c2C2CCN(C(=O)OC(C)(C)C)CC2)c1 -23.7%
Cc1cccc(CNC(=O)CCCN2C(=O)COc3ccc(C)cc32)c1 -18.5%
CCn1c(=O)c2cc(C(=O)N(C)c3cc(Cl)c(OC)cc3OC)sc2c2ccccc21 1.65%
Cc1nc2cccnc2n1C1CCN(S(=O)(=O)c2ccc(C(C)C)cc2)CC1 33.1%
CCc1nn(CC(=O)NCCN(CC)CC)c(=O)c2cc3occc3n12 5.73%
O=C(CSc1ncc2c(n1)-c1ccccc1N(Cc1ccc(F)cc1)S2(=O)=O)NCc1ccccc1 -21.8%
CCOc1ccc(NC(=O)c2noc3c2CSc2ccccc2-3)cc1 -8.88%
O=C(NCc1ccc(Cl)cc1)C1CCN(S(=O)(=O)c2ccc3c(c2)CCCN3C(=O)C2CCC2)CC1 -17.5%
CC(C)(C)c1ccc(S(=O)(=O)N2CCN(C(=O)c3cc(-c4ccc(Br)cc4)n[nH]3)CC2)cc1 -6.87%
O=C(CSc1nc(O)c(C/C=C/c2ccccc2)c(=O)[nH]1)Nc1cccc(F)c1 -3.42%
O=C(Nc1ccc2oc(-c3cc(Br)ccc3Cl)nc2c1)c1ccc2ccccc2c1 7.13%
COc1cccc(CNC(=O)c2nnc(Cc3ccc(Cl)cc3)o2)c1 14.1%
COc1cc(-c2noc(-c3ccc(N4CCCCC4)c([N+](=O)[O-])c3)n2)cc(OC)c1OC 0.997%
CCOCCc1nn2c(=O)cc(COC(=O)c3ccco3)nc2s1 -2.9%
COc1ccc(-c2cc(C)no2)cc1S(=O)(=O)N1CC(C)Oc2ccccc21 (configuration not stated) -28.8%
COc1ccccc1N1CCN(c2ncnc3onc(C)c23)CC1 22.4%
O=C(CSc1ccc(-c2cccs2)nn1)Nc1cccc(F)c1 26.2%
CCN1CCN(CCCNC(=O)c2ccc3c(c2)sc2nc(-c4ccc(C)cc4)cn23)CC1 1.21%
CCOC(=O)Cn1c(=O)n(C2CCCCC2)c2nc(-c3cccc(C)c3)nc(C(N)=O)c21 6.57%
O=C1CC(c2cccc(F)c2)c2c(n3ncnc3[nH]c2=O)N1 (configuration not stated) -27.4%
COc1cccc(N2CCN(C(=O)Cn3ncc4c(=O)oc5ccccc5c43)CC2)c1 15.5%
CCCn1c(=O)c2sccc2n2c(CCCC(=O)Nc3ccccc3F)nnc12 -12.4%
CN(C(=O)c1oc(=O)c2ccccc2c1-c1ccccc1)c1cccc(Cl)c1 -41.6%
COc1ccc(-n2c(SCC(=O)NCc3ccccc3)nc3n[nH]c(C)c3c2=N)cc1 4.93%
CCCNC(C)C(=O)Nc1c(C)csc1C(=O)OC (configuration not stated) -9.71%
COc1cccc(CN2CCc3nc(N4CCN(C)CC4)ncc3C2)c1 -12.5%
COc1ccc(-n2nc(C(=O)N3CCN(c4cccc(C(F)(F)F)c4)CC3)c3c4ccccc4n(C)c3c2=O)cc1Cl -8.13%
CCOc1ccc(CCNC(=O)Cc2ccc(NC(=O)N3CCSc4ncccc43)cc2)cc1 -8.25%
Cc1oc2ncn(C)c(=O)c2c1C(=O)NCc1ccccc1 -9.82%
Cc1cccc(-c2noc(-c3cc(-c4ccc(F)cc4)n[nH]3)n2)c1 -0.456%
COc1cccc(N2CCN(C(=O)Cn3ncc4c5ccccc5n(C)c4c3=O)CC2)c1 -15%
COc1cc(OC)cc(C(=O)Nc2nc(-c3nnn(-c4ccc(F)c(Cl)c4)c3C)ns2)c1 9.29%
COc1cc(-c2noc(-c3ccc(N4CCOCC4)c([N+](=O)[O-])c3)n2)cc(OC)c1OC -23.9%
CCN(CCCNC(=O)CSc1cc(=O)n(C)c2cc(Cl)ccc12)c1cccc(C)c1 3.23%
Cc1c2cnn(-c3ccccc3)c(=O)c2c(C)n1CC(=O)N1CCN(c2ccc(F)cc2)CC1 -0.499%
Cc1ccc(OCC(=O)N(Cc2ccco2)Cc2ccco2)cc1 -11.4%
Cc1ccc(NC(=O)CSc2nc3ccccc3c3nc(CCn4cncc4C)nn23)c(C)c1 -6.91%
COc1cccc(-c2nc(CS(=O)(=O)CC(=O)Nc3cc(F)ccc3F)c(C)o2)c1 -35.5%
CCc1ccc(C(=O)c2c(N)c(-c3nc(-c4ccc5c(c4)OCO5)cs3)c3ccccn23)cc1 -9.86%
Oc1c(C(c2ccc(Br)cc2)N2CCOCC2)sc2nc(-c3ccco3)nn12 (configuration not stated) 20.9%
CCS(=O)(=O)c1nc2ccccc2n1CC(=O)Nc1ccccc1C(=O)OC 6.33%
COc1ccc(CCNC(=O)CCn2c(=O)c3ccccc3n(Cc3c(C)cc(C)cc3C)c2=O)cc1OC 2.78%
COc1ccc2nc3sc(C(=O)N4CCN(c5ccccc5)CC4)cc3cc2c1 1.57%
CN(C)c1ccc(C(CNC(=O)c2ccccc2F)N2CCc3ccccc32)cc1 (configuration not stated) -25.9%
Cc1csc2nc(CCNS(=O)(=O)c3ccccc3)cn12 -5.03%
N#Cc1ccccc1S(=O)(=O)N1CCCC(c2nc3c(nnn3Cc3cccc(Cl)c3)c(=O)[nH]2)C1 (configuration not stated) -8.27%
CC(C)CCNC(=O)CN1C(=O)c2cccnc2Oc2ccccc21 -13.9%
CN1CCN(C(=O)c2cnn(-c3cccc(Cl)c3)c2C2CCN(C(=O)OC(C)(C)C)CC2)CC1 -12.1%
COc1cccc(CNC(=O)c2ccc3c(c2)N(Cc2ccc(C(F)(F)F)cc2)C(=O)c2ccccc2S3)c1OC -14.4%
Cc1nn(-c2ccccc2)c2c1N(CCCC(=O)NCc1ccc(Cl)cc1)C(=O)CS2 0.748%
CCCCNc1nc2c(S(=O)(=O)c3ccc(Cl)cc3)nnn2c2ccsc12 -14.5%
CCOc1ccc(NC(=O)Cc2ccc(NC(=O)N3CCCCc4ccccc43)cc2)cc1 -3.92%
CC(C)(C)c1ccc(S(=O)(=O)c2cnc(SCC(=O)Nc3ccc(F)c(Cl)c3)[nH]c2=O)cc1 -13.2%
COc1ccc(-c2nnc(SCC(=O)NCc3ccccc3)nc2-c2ccc(OC)c(OC)c2)cc1OC -18.7%
Cc1ccc(CN(Cc2ccco2)C(=O)COc2ccc(Cl)cc2Cl)cc1 -6.47%
Cc1c(NC(C)C)c(=O)n(-c2ccccc2)n1C 6.05%
CCOC(=O)c1cc(-c2ccc(F)cc2)n(CC(=O)NCc2ccc(OC)cc2)c1C -14.8%
COC(=O)c1ccc([C@H]2Nc3ccc(S(=O)(=O)Nc4ccc(C)cc4)cc3[C@H]3C=CC[C@H]32)cc1 -36.6%
Cc1cn2c(=O)cc(COC(=O)c3cccc(NC(=O)COc4ccc(Cl)cc4)c3)nc2s1 -15.5%
COC(=O)c1c(NC(=O)COc2ccccc2Cl)sc2c1CCC(C(C)(C)C)C2 (configuration not stated) 8.12%
Cc1ccc(CCNC(=O)c2cc3sccc3n2Cc2ccc(F)cc2)cc1 0.651%
O=C(Nc1ccc(Br)cc1)c1ccc(Br)c(S(=O)(=O)N2CCCCC2)c1 24.4%
N#C/C(=C\c1ccc(Br)cc1)c1nc(-c2cc3cc(Br)ccc3oc2=O)cs1 -10.5%
Cc1ccc(C(=O)c2cn(Cc3ccccc3F)c3cc4c(cc3c2=O)OCO4)cc1 44.5%
COC(=O)c1ccc(Cl)cc1NC(=O)N1CCC(CN2CCCC2)CC1 -17.1%
CC1(C)O[C@@H]2C[C@H]3[C@@H]4CCC5=CC(=O)C=C[C@]5(C)[C@@H]4[C@@H](O)C[C@]3(C)[C@]2(C(=O)CO)O1 6.37%
COc1cc(/C=C(\C#N)c2nc3ccc(C)cc3[nH]2)ccc1OC(C)C -1.08%
CCc1ccccc1N(C)S(=O)(=O)c1ccc2[nH]cc(C(=O)NCCOC)c(=O)c2c1 -6.9%
CCc1ccc(S(=O)(=O)c2c[nH]c3cc(OC)c(OC)cc3c2=O)cc1 -0.692%
COc1ccc2cc3cc(C(=O)NCCc4ccccc4)sc3nc2c1Cl 19.6%
Cc1ccccc1NC(=O)Cn1c(=O)n(-c2ccc(CC(=O)NCC3CCCO3)cc2)c(=O)c2ccccc21 (configuration not stated) 5.28%
COc1ccc(-c2cc(C(F)(F)F)nc(NCc3ccccc3)n2)cc1 -18.6%
COc1cccc(NC(=O)C(=O)NCC(c2ccc3c(c2)OCO3)N2CCOCC2)c1 (configuration not stated) -9.66%
O=C(Cn1c(=O)n(-c2ccc(Cl)cc2)c(=O)c2sc3ccccc3c21)NC1CCCCC1 8.55%
